# About 50,000 (12%) of roughly 420,000 compounds were called active. This list was built around the results that the source calls inconclusive (neither active nor inactive); the mix of calls is not that of the screen. The call rests on the fitted dose curve; in most records, active means well fitted inhibition curve with a large enough effect; inconclusive means small, poorly fitted or top-dose-only effect; inactive means flat fitted curve, though single readings scatter. Potencies of inconclusive entries are left out as doubtful fits.
# Assay: qHTS for Inhibitors of human tyrosyl-DNA phosphodiesterase 1 (TDP1): qHTS in cells in presence of CPT; further: nearly all actives have a fitted effect of over 55% in size
# Settings: chicken DT40 Tdp1-/-;hTDP1 cells + 20 nM CPT, ATP luminescence, 48 h; activity change, negative = growth inhibition: at 46.2 µM (top of the series) unless noted
# Method in brief: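 Cell growth measured by CellTiter-Glo luminescence after a minimum 48 h, 37 C compound exposure with 20 nM CPT in Tdp1-knockout DT40 cells stably expressing hTDP1, seeded 400/well; qHTS titration format.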
# On the % scale 0 is the no-effect control and ±100 the full control effect; potency means the concentration at half of the fitted maximal effect; tags describe the fitted curve by direction and shape.
Structure (SMILES),"activity change, negative = growth inhibition",Potency
Cc1ccc(C(=O)c2c(N)c(C(=O)Nc3cccc(C(F)(F)F)c3)c3ccccn23)cc1,inactive: -25.4%,–
CC1(C)C2CCC(C2)C1(C)NC(=O)CN1CCCC1 (stereo unspecified),inactive: 7.83%,–
COc1ccc(-c2csc(/C(C#N)=C\c3ccc(OC)c([N+](=O)[O-])c3)n2)cc1,–,"inconclusive [inhibitor, partial curve, poor fit]"
CC(C)C1Cc2ccccc2-c2[nH]c(=S)[nH]c(=O)c21 (stereo unspecified),inactive: 0.143%,–
CSc1nc(N2CCN(Cc3ccc4c(c3)OCO4)CC2)c2ccccc2n1,–,"inconclusive [inhibitor, single point]"
O=C(c1ccc(Cl)cc1)c1ccc(Oc2cc(NN3CCCCC3)c([N+](=O)[O-])cc2[N+](=O)[O-])cc1,–,"inconclusive [inhibitor, single point]"
Cc1sc2ncnc(N3CCC(C(=O)N(C)CC(=O)Nc4ccccc4Cl)CC3)c2c1C,–,active: 16.4 µM
Cc1ccc(OCC(=O)NNC(=S)NC(=O)c2cccs2)c(C)c1,–,active: 16.4 µM
Cc1cccn2cc(-c3ccc4c(c3)NC(=O)CO4)nc12,–,"inconclusive [inhibitor, single point]"
Cc1c(C(=O)OCCOC(C)C)[nH]c2c1C(=O)CC(c1ccco1)C2 (stereo unspecified),–,active: 0.0231 µM
COc1cc(Nc2nc(-c3ccc(OC)c(OC)c3)nc3ccccc23)cc(OC)c1,–,active: 5.8 µM
O=C(Nc1ccc(S(=O)(=O)NCCc2ccccc2)cc1)c1ccncc1,–,active: 18.4 µM
CCc1ccc(N2CC(C(=O)Nc3ccccc3N3CCCC3)CC2=O)cc1 (stereo unspecified),–,active: 11.6 µM
Cc1ccc(-c2nc(CN3CCN(c4cnccn4)CC3)c(C)o2)o1,inactive: 17.6%,–
CC1=C(C(N)=O)S(=O)(=O)c2ccccc21,–,"inconclusive [inhibitor, single point]"
Cc1ccc(C)c(NS(=O)(=O)c2cc(C(=O)Nc3cccc(N(C)S(C)(=O)=O)c3)ccc2C)c1,–,"inconclusive [inhibitor, single point]"
Cc1ccc(S(=O)(=O)N2CCCCC2)cc1NC(=O)c1ccc2c(c1)OCO2,–,"inconclusive [inhibitor, single point]"
NC(CCc1ccccc1)c1csc(NC(=O)NCC2CCCCC2)n1 (stereo unspecified),–,active: 14.6 µM
CCCCOc1ccc(C(=O)Nc2cccc(-c3nc4ccccc4o3)c2C)cc1,inactive: -29.3%,–
COc1ccc(/C=C/C(=O)C2CC2)cc1Cn1nc(C)c([N+](=O)[O-])c1C,–,"inconclusive [inhibitor, single point]"
Cc1nc2nc(NCc3ccc(Br)cc3)[nH]n2c(=O)c1Cc1ccccc1,–,"inconclusive [inhibitor, single point]"

# Reference: PubChem BioAssay AID686979 (National Center for Advancing Translational Sciences (NCATS), 2013)
